Test results from publication PMC4336329 (PLoS ONE, 2015).
Out of some 310,000 compounds screened, about 2,200 (0.71%) showed an effect of 50% or more. Effects have a minus sign here. This is one part of the list.

target: human ether-à-go-go-related gene (hERG) potassium channel (human, UniProt Q12809); experiment: primary screen, population patch clamp on CHO cells stably expressing hERG
Sequence (Q12809 whole entry, looked up): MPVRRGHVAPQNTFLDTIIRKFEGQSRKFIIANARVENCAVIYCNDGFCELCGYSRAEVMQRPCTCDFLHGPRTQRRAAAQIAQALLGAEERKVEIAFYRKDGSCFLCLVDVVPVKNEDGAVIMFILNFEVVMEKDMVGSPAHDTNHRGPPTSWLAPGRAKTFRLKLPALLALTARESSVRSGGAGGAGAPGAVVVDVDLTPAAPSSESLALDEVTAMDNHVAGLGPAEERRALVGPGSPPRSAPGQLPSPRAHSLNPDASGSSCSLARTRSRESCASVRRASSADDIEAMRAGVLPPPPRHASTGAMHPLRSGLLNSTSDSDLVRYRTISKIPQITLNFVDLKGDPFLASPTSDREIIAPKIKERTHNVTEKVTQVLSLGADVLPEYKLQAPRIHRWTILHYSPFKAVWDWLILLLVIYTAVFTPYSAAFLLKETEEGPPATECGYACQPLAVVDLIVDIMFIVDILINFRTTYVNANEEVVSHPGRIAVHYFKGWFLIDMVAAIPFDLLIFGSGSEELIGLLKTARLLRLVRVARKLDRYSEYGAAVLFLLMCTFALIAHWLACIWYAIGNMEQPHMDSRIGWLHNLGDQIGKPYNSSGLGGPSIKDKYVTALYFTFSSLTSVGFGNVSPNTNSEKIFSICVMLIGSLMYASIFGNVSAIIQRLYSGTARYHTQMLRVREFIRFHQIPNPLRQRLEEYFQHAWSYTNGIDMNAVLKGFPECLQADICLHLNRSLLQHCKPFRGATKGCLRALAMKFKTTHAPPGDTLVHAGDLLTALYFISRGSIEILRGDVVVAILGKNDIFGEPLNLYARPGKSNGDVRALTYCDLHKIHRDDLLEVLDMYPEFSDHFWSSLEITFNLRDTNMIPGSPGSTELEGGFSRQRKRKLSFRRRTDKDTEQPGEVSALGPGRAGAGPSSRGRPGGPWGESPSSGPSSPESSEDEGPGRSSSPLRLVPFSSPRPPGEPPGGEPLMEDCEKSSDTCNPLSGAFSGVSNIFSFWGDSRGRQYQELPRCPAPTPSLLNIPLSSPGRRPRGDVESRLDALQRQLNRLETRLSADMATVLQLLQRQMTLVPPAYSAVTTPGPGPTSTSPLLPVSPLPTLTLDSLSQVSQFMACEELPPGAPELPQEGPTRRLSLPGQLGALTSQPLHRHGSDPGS

| SMILES | hERG current change (%, negative = inhibition) at 1uM [%] |
| --- | --- |
| CC(C)OC(=O)c1c(F)c(F)c(N2CCOCC2)c(F)c1F | 0.75 |
| O=C(NC1CCOCC1)C1CCC(=O)N(CCc2ccc(Cl)cc2)C1 (centres unmarked) | 12.8 |
| CN1CCN(/C(=N\O)c2nonc2N)CC1 | -0.314 |
| O=c1[nH]c(=S)n(CCC2=CCCCC2)c(O)c1C=NCCCn1ccnc1 | -21.4 |
| Cn1ncc(S(=O)(=O)Cc2ccccc2)c(Cl)c1=O | 11.1 |
| CC(C)NC(=O)CN1C(=O)NC(CCc2ccccc2)C1=O (centres unmarked) | 4.43 |
| Cc1ccc2c(C)nc(N/C(N)=N/S(=O)(=O)c3ccc([N+](=O)[O-])cc3)nc2c1 | 12 |
| CCN1C(=O)N(c2ccc(C(C)=O)cc2)S(=O)(=O)c2ccccc21 | 12.6 |
| N/C(=N\NC(=O)c1ccccc1)c1cc2ccccc2oc1=O | 12.3 |
| Cc1ccccc1CSCC(=O)Nc1ccccc1F | 11.6 |
| COc1ccc(Nc2oc(-c3ccco3)nc2S(=O)(=O)c2ccc(F)cc2)cc1 | -10.2 |
| COc1cc(/C=C/[N+](=O)[O-])ccc1OC(=O)/C=C/c1ccc(F)cc1 | 18.1 |
| COc1cc(Cl)c(C)cc1NC(=O)Cn1c(NCCO)nc2ccccc21 | 8.57 |
| COc1cccc(/C=N/N2C(=O)CSC2=S)c1O | 10.3 |
| O=C(Nc1cccc(O)c1)c1ccc([N+](=O)[O-])cc1Cl | 2.16 |
| COc1ccccc1-c1cc(C(F)(F)F)nc(N2CCCCC2)n1 | -11 |
| COc1ccc(-c2[nH]ncc2CN2CCN(c3ccccn3)CC2)c(OC)c1 | 2.51 |
| COc1ccc(CN(C)CC(=O)NC(C)c2ccccc2)c(OC)c1 (centres unmarked) | -2.83 |
| CC(OC(=O)c1ccccc1NS(=O)(=O)c1cccc(N)c1)C(=O)N(C)Cc1ccccc1 (centres unmarked) | 2.73 |
| Cc1ccc(-c2nn(-c3cc(N4CCNCC4)ccc3[N+](=O)[O-])c(=O)c3ccccc23)cc1 | 11 |
| Cc1ccc(C(=O)Nc2cccc(C(F)(F)F)c2)cc1Nc1ccccn1 | 10.8 |
| Cn1ncc2c(Nc3cccc([N+](=O)[O-])c3)ncnc21 | 10.9 |

| SMILES | hERG current change (%, negative = inhibition) at 1uM [%] |
| --- | --- |
| CN(C)CCCOc1cccc(Oc2ccccc2)c1.O=C(O)C(=O)O | 6.95 |
| CCCn1c(SCC(=O)c2cc(OC)ccc2OC)nnc1C(C)C | 12 |
| CC12CC(c3ccccc3O1)N(C(=O)c1ccc(Br)o1)C(=O)N2c1ccccc1 (centres unmarked) | 18.5 |
| COc1ccc(NC(=O)CSc2nc(N)c(C#N)cc2C#N)cc1 | -7.37 |
| Cc1cc(NC(=O)COC(=O)c2ccccc2[N+](=O)[O-])no1 | 3.24 |
| CC(=O)O.CC1(C)CC(=O)C2=C(C1)NC1=C(C(=O)c3ccccc31)C2c1cc([N+](=O)[O-])ccc1O (centres unmarked) | -4.45 |
| CCN(CC)c1ccc(NC(=O)COC(=O)/C=C/c2nc3ccccc3s2)cc1 | 13.8 |
| CCOC(=O)c1csc(NC(=O)CN2CCCCC2)n1 | 19.1 |
| CC(=O)NS(=O)(=O)c1ccc(N=c2ssc3c2-c2cc(C)ccc2NC3(C)C)cc1 | -1.11 |
| CC(NC(=O)c1cccc(S(=O)(=O)N(C)C)c1)C1CC2CCC1C2 (centres unmarked) | 16.8 |
| CNc1nnc(-c2cc3ccccc3oc2=O)s1 | 9.57 |
| O=C(Cc1ccc(S(=O)(=O)N2CCOCC2)s1)Nc1ccc(S(=O)(=O)N2CCCCC2)cc1 | 14.1 |
| CCOC(=O)c1c(C)[nH]c(C)c1C(=O)COC(=O)/C=C/c1ccc(Cl)cc1 | 12 |
| COc1ccc2cc1Oc1ccc(cc1)C[C@H]1c3cc(c(OC)cc3CCN1C)Oc1c(OC)c(OC)cc3c1[C@@H](C2)N(C)CC3 | 1.24 |
| [O-]/[N+](=C\c1ccco1)c1ccc(Cl)cc1 | 13.2 |
| CCC(C)(C)NC(=O)/C=C/c1cccs1 | -5.86 |
| Cn1cc(/C=C(\C#N)C(=O)Nc2ccccc2O)c2ccccc21 | 7.79 |
| COc1cccc(NC(=O)CN(c2cccc(F)c2)S(C)(=O)=O)c1 | 7.53 |
| Cc1ccccc1-n1c(O)c(/C=N/c2nccs2)c(=O)[nH]c1=O [22412411] | 8.54 |
| Cc1ccc(S(=O)(=O)NCCC(=O)N2CCN(Cc3ccccc3)CC2)cc1 | 14.6 |
| CCOc1ccc2cc(C(=O)NCc3ccccc3)c(=N)oc2c1 | 13.1 |
| O=C(OCC(=O)N1CCN(c2ccccc2)CC1)c1ccc(Cl)nc1 | 12.4 |

| SMILES | hERG current change (%, negative = inhibition) at 1uM [%] |
| --- | --- |
| NC(=O)c1ccc(N2CCCCCC2)c([N+](=O)[O-])c1 | 8.07 |
| CC(C)Oc1ccccc1-c1nc(SCC(=O)O)n[nH]1 | 7.58 |
| CCOc1cc(C2NN=C(c3ccccc3)S2)ccc1OCc1ccc(F)cc1 (centres unmarked) | 15.6 |
| CCC(Cc1ccccc1)NC(=O)Cn1ncc2ccsc2c1=O (centres unmarked) | 7.13 |
| O=[N+]([O-])c1ccc2nc(CN3CCCCC3)[nH]c2c1 | 15.4 |
| CC(C)[C@H]1C(=O)Nc2ccccc2N1C(=O)N[C@@H](Cc1ccccc1)C(=O)N[C@H](Cc1ccccc1)C(=O)O | 1.45 |
| Nc1nc(-c2ccc(C(=O)O)cc2)cs1 | 9.18 |
| Cc1ccn(CCNC(=O)C2CCC(=O)N(CCc3ccc(Cl)cc3)C2)n1 (centres unmarked) | -13.6 |
| CCN(CC)S(=O)(=O)c1ccc(OC)c(NC(=O)c2cccc(C)c2[N+](=O)[O-])c1 | 6.34 |
| CCOC(=O)CNC(=O)C1c2cc(OC)c(OC)cc2C(=O)N(C)C1c1ccccc1F (centres unmarked) | 8.66 |
| COc1cccc(CNC(=O)CN2C(=O)COc3ccc(S(=O)(=O)N4CCCCCC4)cc32)c1 | 21.1 |
| O=C(NCCN1CCOCC1)Nc1ccc(Cl)cc1 | 14.2 |
| COc1ccc(-c2cc(C(=O)Nc3cc(OC)cc(C(=O)Nc4cccc(C(F)(F)F)c4)c3)[nH]n2)cc1 | -5.22 |
| COCc1ccc(CN2CCCC(CO)(Cc3cccc(OC)c3)C2)o1 (centres unmarked) | -6.79 |
| COc1ccc(C(=O)Nc2ccc(C(=O)c3ccccc3)cc2)cc1 | 19.7 |
| CCOC(=O)C1CCC/C1=N\NC(=O)CN(c1cc(OC)ccc1OC)S(=O)(=O)c1ccccc1 (centres unmarked) | -1.72 |
| COc1ccc(CCNC(=O)CC2(CC3=NS(=O)(=O)c4ccccc4N3)CCCC2)cc1OC | -1.15 |
| Cc1cccc(NC(=O)NC2CCCCCCC2)c1C | 12.9 |
| COc1ccc2nc(NC(=O)C(NS(=O)(=O)c3cccc4nsnc34)C(C)C)sc2c1 (centres unmarked) | 9.04 |
| CCOC(=O)c1cc(-c2cc3ccccc3o2)n[nH]1 | 10.2 |
| COc1cccc(CCc2nnc(CCC(=O)N(C)C3CC(C)(C)NC(C)(C)C3)o2)c1 | 12.1 |
| Cc1cc2cc(C(c3nnnn3C3CCCC3)N(Cc3cccnc3)Cc3ccco3)c(=O)[nH]c2cc1C (centres unmarked) | -0.767 |

| SMILES | hERG current change (%, negative = inhibition) at 1uM [%] |
| --- | --- |
| COc1ccccc1NC(=O)CCNS(=O)(=O)c1ccc2[nH]c(=O)oc2c1 | 9.11 |
| CC(/C=N\NC(=O)Cn1c(C)nc2ccccc21)=C\c1ccccc1 | 15.5 |
| Clc1ccc(COn2c(-c3ccc(Cl)cc3Cl)nc3ncccc32)cc1 | 8.26 |
| COCCN(C(=O)c1ccco1)c1nnc(-c2ccc(OC)cc2)s1 | 12.3 |
| CCC(=O)N1CCc2cc(Br)cc(S(=O)(=O)N(C)c3ccc(OC)cc3OC)c21 | 12.7 |
| CCCCOc1ccc(C(=O)NN2C(=O)NC3(CCCCC3)C2=O)cc1OC | 12.3 |
| CN(C)c1ccc(/C=N/NC(=O)CCc2nc3ccccc3[nH]2)cc1 | 14.1 |
| C/C(=C\c1ccccc1)C(=O)Nc1ccc(Cl)cn1 | 10.8 |
| CN(C(=O)Cc1c(C(=O)O)n(C)c2ccccc12)c1ccc(F)cc1 | 7.28 |
| Cn1c(CN2CCCC2)nc2cc(NC(=O)c3ccc(Cl)cc3)ccc21 | -11.3 |
| CN(C)c1ccc(C(=O)Nc2nc3c(s2)CCCC3)cc1 | 7.08 |
| CC1CCN(S(=O)(=O)c2ccc(NC(=O)CN3CCN(C)CC3)cc2)CC1 | 3.35 |
| CC(NC(=O)CCNS(=O)(=O)c1ccc2c(c1)c(=O)n(C)c(=O)n2C)c1ccccc1 (centres unmarked) | -0.673 |
| O=C(c1cc[n+]([O-])cc1)N1CCc2c([nH]c3ccccc23)C1c1ccccc1Cl (centres unmarked) | 7.21 |
| CCOCCn1c(SCc2ccc(F)cc2)nc2c1c(=O)[nH]c(=O)n2C | 5.52 |
| O=C(NC1CCCC1)C1CCN(c2nccs2)CC1 | 10.5 |
| O=C(O)C1CCN(S(=O)(=O)c2cccnc2)CC1 | 6.26 |
| Cc1cccc(NC(=O)Cc2ccc(-c3ccccc3)cc2)n1 | 9.98 |
| COc1ccc(N2CCN(C(=O)c3ccccc3NS(=O)(=O)c3ccccc3)CC2)cc1 | 9.47 |
| Cl.O=C(CCCN1CCC(c2ccccc2)C1)c1ccc2c(c1)OCCO2 (centres unmarked) | -29.8 |
